Source: PubChem BioAssay AID280 (DTP/NCI, 2004)
Toxic doses and inconclusive results are not listed. A number of entries come with more than one value. Only these are listed. The source may hold further records. The values listed for one entry differ for a reason that is not stated; they may come from other doses, times, organisms or constructs than stated.

Tested on: nude mice, LOX melanoma ip, survival T/C
Assay: NCI In Vivo Anticancer Drug Screen. Data for tumor model Human Amelanotic Melanoma (LOX) (intraperitoneal) in NU/NU BALB/C (nude) mice
Details: endpoint: median survival time, schedule: Q04DX003 (ip), higher = longer survival
Experimental: The antitumor activity of compounds was measured in mice bearing transplantable tumors. Survival or tumor size were measured and the results are expressed as the measurement made in the treated group (T) divided by the measurement made in the vehicle treated control group (C). The tumor model used in this assay is Human Amelanotic Melanoma (LOX) (intraperitoneal) in NU/NU BALB/C (nude) mice

## N[C@@H](Cc1ccc(N(CCCl)CCCl)cc1)C(=O)O
dose: 4.0 mg/kg/injection, vehicle: saline
  T/C: 107 % of control and 181 % of control

## O=C(O)CCCc1ccc(N(CCCl)CCCl)cc1
dose: 18.0 mg/kg/injection, vehicle: Klucel (hydroxypropylcellulose) (HPC)
  T/C: 107 % of control, 159 % of control, 179 % of control

## CN(C)/N=N/c1nc[nH]c1C(N)=O
dose: 150.0 mg/kg/injection, vehicle: Klucel (hydroxypropylcellulose) (HPC)
  T/C: 112 % of control and 160 % of control
dose: 225.0 mg/kg/injection, vehicle: Klucel (hydroxypropylcellulose) (HPC)
  T/C: 111 % of control and 171 % of control

## Cc1c(N)nc([C@H](CC(N)=O)NC[C@H](N)C(N)=O)nc1C(=O)N[C@H](C(=O)N[C@H](C)[C@@H](O)[C@H](C)C(=O)N[C@H](C(=O)NCCc1nc(-c2nc(C(=O)NCCC[S+](C)C)cs2)cs1)[C@@H](C)O)C(OC1OC(CO)C(O)C(O)C1OC1OC(CO)C(O)C(OC(N)=O)C1O)c1cnc[nH]1 (stereo not given in full)
dose: 16.0 mg/kg/injection, vehicle: saline
  T/C: 107 % of control and 167 % of control
